Experimental findings from PubChem BioAssay AID488969 (Vanderbilt High Throughput Screening Facility, 2010) are described below.

In all, about 110,000 compounds were measured (“z-score”: median about -0.1, highest 2% from about 2 on). This is one part of the list. Activity calls are given as the source filed them.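 The calls were made as follows: active = z-score in the third read window above 3 or below -3; inactive = the rest.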

This test deals with Metabotropic glutamate receptor 8 (Rattus norvegicus) (UniProt P70579). Nature of the test: rat mGluR8 modulators via GIRK flux, primary screen, cell-based, thallium flux, HTS (AID 488969). To be noted: HEK293 rat mGluR8, GIRK (G protein-gated inwardly rectifying potassium channel) thallium flux, FluoZin2; at 10 µM; stronger effect = higher value; submaximal glutamate (EC20) added with thallium.
UniProt P70579, sequence (P70579 whole entry, looked up): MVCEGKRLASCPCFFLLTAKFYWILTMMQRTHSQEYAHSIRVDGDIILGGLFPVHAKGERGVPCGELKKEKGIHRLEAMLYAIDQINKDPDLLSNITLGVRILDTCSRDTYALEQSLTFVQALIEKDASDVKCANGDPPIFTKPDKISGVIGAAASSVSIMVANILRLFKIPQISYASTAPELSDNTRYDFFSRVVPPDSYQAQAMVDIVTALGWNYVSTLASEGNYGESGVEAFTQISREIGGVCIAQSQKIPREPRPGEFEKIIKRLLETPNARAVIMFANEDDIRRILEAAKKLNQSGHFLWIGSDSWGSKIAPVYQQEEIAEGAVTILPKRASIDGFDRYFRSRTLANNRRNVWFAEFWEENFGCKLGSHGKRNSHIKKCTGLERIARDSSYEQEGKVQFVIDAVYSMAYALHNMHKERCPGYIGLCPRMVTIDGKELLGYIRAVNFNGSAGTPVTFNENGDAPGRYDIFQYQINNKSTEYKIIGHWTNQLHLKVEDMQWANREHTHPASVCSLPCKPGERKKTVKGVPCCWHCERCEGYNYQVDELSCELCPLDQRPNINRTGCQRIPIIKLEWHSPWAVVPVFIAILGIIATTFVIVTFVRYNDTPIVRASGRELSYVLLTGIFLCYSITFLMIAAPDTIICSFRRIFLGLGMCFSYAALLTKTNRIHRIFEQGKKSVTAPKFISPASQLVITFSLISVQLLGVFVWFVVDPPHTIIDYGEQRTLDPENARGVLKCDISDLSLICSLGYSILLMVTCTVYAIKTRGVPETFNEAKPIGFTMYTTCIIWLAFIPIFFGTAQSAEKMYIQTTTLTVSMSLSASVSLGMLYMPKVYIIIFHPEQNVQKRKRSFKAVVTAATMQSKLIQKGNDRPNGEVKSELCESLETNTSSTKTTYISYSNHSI
In turn, `Cn1c(=O)c2c(n3cnnc13)-c1ccccc1CC21CCCC1` came in with a z-score of 0.288. With `Cc1cccc(N(CC(=O)Nc2c(C)n(C)n(-c3ccccc3)c2=O)S(C)(=O)=O)c1`, the z-score was determined as 0.355. With `O=S(=O)(c1ccccc1)N1c2cc(Cl)ccc2Oc2nc3ccccc3nc21` the figure was -0.294. The compound `COc1ccc2c(c1)-c1c(ssc1=S)C(C)(C)N2` returned a z-score of -0.613. For the compound `COc1cc(/C=C/C(=O)C2C(=O)C=C(C)OC2=O)cc(OC)c1O` (stereo not drawn), the z-score is -0.286. Then `Clc1ccc(CSc2nnc(/C=C/c3ccccc3)o2)c(Cl)c1`, with -0.0625. `O=C(CSc1nnc(-c2ccco2)n1CC1CCCO1)NC1CCCC1` (stereo not drawn) gave a z-score of 0.42. The compound `O=[N+]([O-])c1ccc(OCCCCN2CCCCC2)cc1` gave a z-score of 0.208. Turning to `S=c1[nH]nc(Cc2cccc3ccccc23)o1`, the z-score is -0.141. Then `COc1ccc(OC)c(C(=O)c2coc3ccc(OCC(=O)O)cc23)c1`, with -0.618; and `Cc1cc(C(=O)OCC(=O)c2cccc([N+](=O)[O-])c2)c2cccc(C)c2n1`, with 0.0809; and `Cc1nc(CNS(=O)(=O)c2ccc(Oc3ccccc3)cc2)cs1`, with 0.404.

Take `CCOc1cc(/C=N\NC(=O)Cn2nc([N+](=O)[O-])cc2C)ccc1OCc1cccc2ccccc12`: the z-score is -0.0599.

In the case of `Cc1ccc(Nc2nc(N)nc(CSc3nc4ccccc4s3)n2)cc1`, the z-score was 0.228. With `Cc1ccc(C(=O)N/N=C\c2ccc[nH]2)cc1[N+](=O)[O-]` the figure was -0.179; with `CSc1ccc(S(=O)(=O)Nc2ccc(S(=O)(=O)Nc3ccc(C)cc3)cc2)cc1`, -0.353; with `CCOC(=O)C1=NN(c2cccc(Cl)c2)C2=NC(C)=C(C(=O)OC)C(c3cccs3)N12` (stereo not drawn), 1.71.

Compound `C/C(=N\NC(=O)c1ccc(CSc2nncn2C)cc1)c1ccc(C#N)cc1` gave a z-score of -0.353. Then `Cc1c(S(=O)(=O)N2CCN(C(c3ccccc3)c3ccccc3)CC2)c(=O)n(C)c(=O)n1C`, with -0.324; and `CCCc1nc2ccccc2c(C(=O)OCC(=O)c2ccc3c(c2)NC(=O)CO3)c1CC`, with -0.0389; and `COc1ccc(OC)c(N(CC(=O)Nc2ccc3c(c2)OCO3)S(=O)(=O)c2ccccc2)c1`, with -0.348. Then `CCSc1nnc(NC(=O)CSc2nnc(CNC(=O)c3cc(OC)c(OC)c(OC)c3)o2)s1`, with 0.188; and `Cc1cc(C)cc(NC(=O)CSc2ccc(-c3cccs3)nn2)c1`, with -0.0502; and `CC1CCN(CCCn2c(=S)[nH]c3ccccc3c2=O)CC1`, with 0.0115.

With `CS(=O)(=O)N(CCc1ccccc1)CC(=O)N1CCN(c2ccc(F)cc2)CC1`, the z-score was found to be 0.072. With `COc1ccc(/C=C2/S/C(=N/N=C3\CC4CCC3(C)C4(C)C)NC2=O)cc1` (stereo not drawn) the figure was -0.651; with `COC1=C(Nc2ccccc2)C(=O)c2ccccc2C1=O`, -0.28; with `COC(=O)c1ccc(OC)c(CSc2nnc(COc3ccccc3)o2)c1`, -0.573.

In the case of `CCOC(=O)C1(C)/C(=N/Nc2ccc(Cl)cc2)C(=O)C(=O)N1c1ccccc1` (stereo not drawn), the z-score is -0.0534. `O=C(c1ccco1)N1CCN(C(c2ccccc2Cl)c2nnnn2CC2CCCO2)CC1` (stereo not drawn): the z-score was 0.248. With `COc1ccccc1CC(=O)Nc1ccc([N+](=O)[O-])cc1OC` the figure was -0.407. Then `O=C(NCCN1CCN(C(=O)c2cccs2)CC1)C(=O)Nc1ccc(Br)cc1`, with -0.194. Then `Cc1nn(CC(=O)N/N=C/c2ccc3c(c2)OCO3)c(C)c1Br`, with -0.368; and `Cc1ccc(CNC(=O)CO/N=C/c2ccc(C(C)(C)C)cc2)cc1`, with 0.00701. In turn, `COC(=O)CCN(C(=O)c1cc(OC)c(OC)c(OC)c1)c1ccccn1` had a z-score of -0.238. With `CC1(C)C(c2ccccc2)=[N+]([O-])CN1O` the figure was 0.809. Then `COc1ccc(Oc2cc(C)c3cccc(C)c3n2)cc1`, with -0.0751. `Cc1ccc(N(CCC#N)C(=O)CCl)cc1C` gave a z-score of -0.335. Regarding `CC(=O)/C=C(\C)Nc1ccc(-c2cnc(-c3ccccc3)o2)cc1`, the z-score was 0.0863. With `Cc1cc(C)n2nc(SCc3cc(=O)oc4cc(O)ccc34)nc2n1` the figure was -0.101; with `O=c1cc(N2CCC3(CC2)OCCO3)[nH]c(=O)n1C1CCCCC1`, 0.629; with `O=C(Nc1ccccn1)c1ccco1`, -0.643. Then `Cc1cc(N(C)C)c(C#N)c(N2CCOCC2)n1`, with -0.00675; and `O=C(Nc1ccc(F)cc1)c1cccc2c1C(=O)N(Cc1ccccn1)C2`, with active: -3.84; and `CCOc1ccc(-c2nn(-c3ccccc3)cc2/C=C2\SC(=S)N(Cc3ccco3)C2=O)cc1`, with -0.103.

Regarding `OCCN(CC(O)Cn1ccc2ccccc21)CC(O)Cn1ccc2ccccc21` (stereo not drawn), the z-score is 0.506.

With `O=C(Nc1ccc2c(c1)OCO2)N1CCN(S(=O)(=O)c2ccc(Cl)cc2)CC1`, the z-score was -0.24. `CCc1cc(C(=O)COc2ccccc2F)c(O)cc1O` registered a z-score of -0.141.

The compound `CCCCN(CCCC)S(=O)(=O)c1ccc(NC(=O)CN2CCOCC2)cc1` displayed a z-score of 0.367. Then `CCOC(=O)c1cnc2c(C)cc(C)cc2c1Nc1ccc(S(=O)(=O)Nc2ncccn2)cc1`, with -0.378; and `CCn1c(SCC(=O)Nc2nc(C)c(C)s2)nnc1-c1ccco1`, with -0.149. `O=[N+]([O-])c1ccccc1NCCNS(=O)(=O)c1ccc(Cl)cc1` yielded a z-score of -0.0705. The compound `O=C(OCn1nnc2ccccc2c1=O)C1COc2ccccc2O1` (stereo not drawn) showed a z-score of 0.438. For `COc1ccc(CCNC(=O)Cc2ccc3c(c2)OCO3)cc1OC`, the z-score is -0.904. The compound `CCOc1ccc(N2CC(C(=O)Nc3cccc(C)c3C)CC2=O)cc1` (stereo not drawn) registered a z-score of -0.0951. The compound `O=C1c2ccccc2C(=O)N1c1ccc(Cl)cn1` registered a z-score of -0.295. With `CCOC(=O)c1ccc2c(c1)nc(COc1ccc3ccccc3c1)n2CC` the figure was 0.395. `C=CCn1c(-c2cc(Cl)ccc2OC)n[nH]c1=S` returned a z-score of -0.302.

As to `C=CCNC(=S)N1CCN(CCN=CC2=C(O)CC(c3cccs3)CC2=O)CC1` (stereo not drawn), the z-score was found to be 0.356. Take `CCOC(=O)c1[nH]c2ccc(Br)cc2c1NC(=O)CCN1CCC(C)CC1`: the z-score is -0.616. With `CCOc1ccc(CNC(=O)C2CCCN(S(C)(=O)=O)C2)cc1OC` (stereo not drawn) the figure was 0.258; with `CC(C)CCNC(=O)C1CCN(S(=O)(=O)c2ccc3c(c2)CCC(=O)N3)CC1`, -0.496. In turn, `CC(C)(C)Cc1nnc(NS(C)(=O)=O)s1` had a z-score of -0.122. With `COc1ccc(NC(=O)C2CCCN2C(=O)Nc2ccccc2)cc1OC` (stereo not drawn), the z-score is 0.756.

As for `Cc1c(-c2cccs2)[n+](=O)c2c(n1[O-])CCCCC2`, the z-score is 0.038. Then `O=C(O)CCC(=O)NNC(=O)CCCOc1ccc(Cl)cc1Cl`, with -0.0434; and `Cc1oc(C(C)(C)C)cc1C(=O)NCC(=O)NCC(=O)O`, with -0.126. Turning to `O=C(Nc1cc(S(=O)(=O)N2CCOCC2)ccc1O)c1ccc(NS(=O)(=O)c2ccc(Cl)s2)cc1`, the z-score was -0.318.
